According to PubChem BioAssay AID1347417 (National Center for Advancing Translational Sciences (NCATS), 2020):
Screen size: about 120,000 compounds; about 5,300 (4.4%) were called active. This list was built around the results that the source calls inconclusive (neither active nor inactive); the mix of calls is not that of the screen. Calls follow the shape of the dose curve; as a rule, active = well fitted inhibition curve with a large enough effect; inconclusive = small, poorly fitted or top-dose-only effect; inactive = no such curve, though single readings can be large or run the other way. Where the call is inconclusive, the potency comes from a doubtful curve fit.

Assay: qHTS Primary assay for Inhibitors of Plasmodium falciparum Dd2 growth in vitro; also: nearly all actives have a fitted effect of over 65% in size;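 as to activity, negative = inhibition: plate controls were DMSO vehicle for no effect and reference drug for full effect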
Conditions: P. falciparum Dd2 growth, SYBR Green, 72 h; activity, negative = inhibition: at 28.9 µM (top of the series) unless noted; series mostly up to 28.9 µM
How it was run: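 Readout: SYBR Green fluorescence, 485 nm excitation, 535 nm emission, after ~16 h lysis at 37C. Before that, Dd2-infected red cells (2.5% hematocrit) grew 72 h with compound, 29 uM top final concentration.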
Potency is read from the fitted curve at half-maximal effect; tags tell the direction and shape of the fitted curve.

Row | Compound | Potency | outcome | activity, negative = inhibition
1 | CCCC1(CO)CCCN(Cc2cc(-c3ccc(C)cc3)no2)C1 (stereo unspecified) | inconclusive: 10 µM [inhibitor, single point] | – | –
2 | O=C(c1ccccc1OCC1CCCN(C2CCSCC2)C1)N1CCCCC1 (stereo unspecified) | – | inactive | –
3 | O=C(Cc1c(F)cccc1Cl)NC1CCN(c2cc(-c3ccccc3)[nH]n2)CC1 | inconclusive: 7.94 µM [inhibitor, single point] | – | –
4 | COc1ccc(CCNC(=O)C(C)n2c(=O)cc(-c3ccccc3)c3c(C)nn(C)c32)cc1OC (stereo unspecified) | inconclusive: 17.8 µM [inhibitor, single point] | – | –
5 | CC1CCN(c2nc3ccc(C(=O)NCc4ccccc4)cc3s2)CC1 | – | – | inactive: -27.4%
6 | COc1ccc(Cn2c(SCc3ccc(C(=O)NC(C)c4ccccc4)cc3)nc3cccnc32)cc1 (stereo unspecified) | inconclusive: 12.6 µM [inhibitor, partial curve] | – | –
7 | CN(Cc1cccc(F)c1)Cc1cccn1C | – | – | inactive: -23.8% [at 44.1 µM]
8 | O=C(COc1ccccc1)N1C[C@@H](F)[C@@H](OCc2nc3ncccc3[nH]2)C1 | inconclusive: 10 µM [inhibitor, single point] | – | –
9 | COc1ccc(CNC(=O)c2ccc3nc(-c4ccc(F)cc4)c(-c4ccc(F)cc4)nc3c2)cc1 | inconclusive: 17.8 µM [inhibitor, single point] | – | –
10 | COc1ccc(-n2cc(CN3C[C@@H](C)O[C@@H](C)C3)c(-c3cccc(F)c3)n2)cc1 | inconclusive: 14.1 µM [inhibitor, single point] | – | –
11 | Cc1ccc(-n2c(Cc3ccccc3)nnc2SCc2nc(-c3cccs3)no2)cc1C | inconclusive: 10 µM [inhibitor, single point] | – | –
12 | O=C(Cc1c[nH]c2ncc(-c3cccnc3)cc12)Nc1ccccc1 | inconclusive: 3.55 µM [inhibitor, single point] | – | –
13 | CNC(=O)c1noc(CN2CCCC(CCc3ccccc3F)C2)n1 (stereo unspecified) | inconclusive: 8.91 µM [inhibitor, partial curve, poor fit] | – | –
14 | CC1(C(=O)NCC2CC2)CCCc2cnc(NCc3ccccc3)nc21 (stereo unspecified) | inconclusive: 31.6 µM [inhibitor, single point] | – | –
15 | COc1cc(NC(=O)CN2C(=O)NC3(CCOCC3)C2=O)cc(OC)c1 | – | inactive | –
16 | CC(C)(C)NC(=O)N1CCCOCCNC(=O)[C@@H]2CCC[C@@H]21 | – | – | inactive: 3.06%
17 | O=S(=O)(NCc1nc2cccnc2n1Cc1ccccc1Cl)c1ccc(F)c(Cl)c1 | inconclusive: 10 µM [inhibitor, single point] | – | –
18 | CC1(C)[C@H](Cc2cc(CO)on2)C[C@@H]1NS(=O)(=O)c1ccccc1 | – | – | inactive: 5.93% [at 44.1 µM]
19 | CC(=O)c1c(C)oc2c1cc(NS(=O)(=O)c1ccc(Cl)c(C)c1)c1ccccc12 | inconclusive: 0.158 µM [inhibitor, partial curve, poor fit] | – | –
20 | COc1ccc(OC)c(NC(=O)Cn2c(=O)cc(-c3ccccc3)c3c(C)nn(C)c32)c1 | inconclusive: 17.8 µM [inhibitor, single point] | – | –
21 | COc1ccccc1-c1ccc(CN2CCN(c3cc(Cl)ncn3)C(=O)C2)cc1 | inconclusive: 7.94 µM [inhibitor, partial curve] | – | –
22 | COc1ccc(C2(C(=O)N3CC4CC(C3)[C@H]3CCCC(=O)N3C4)CCCCC2)cc1 (stereo partly specified) | inconclusive: 20 µM [inhibitor, single point] | – | –

Row | Compound | Potency | outcome | activity, negative = inhibition
23 | O=C(NC1CCCN(c2cc(-c3ccccc3)[nH]n2)C1)c1cc(F)ccc1Cl (stereo unspecified) | – | inactive | –
24 | COc1ccc(-n2nc(C)c([C@@H]3C=C[C@@H](NCc4ccc(N(C)C)cc4)C3)c2C)cc1 | active: 1.58 µM | – | –
25 | COCC1CCCN(Cc2nc(C(c3ccccc3)c3ccccc3)no2)C1 (stereo unspecified) | active: 11.2 µM | – | –
26 | O=C(Nc1cccc(-c2ccc(N3CCCC3)nn2)c1)Nc1c(F)cccc1F | – | – | inactive: -29.7%
27 | O=C(CCCn1c(=O)c2cccn2c2ccccc21)NCCc1ccc(Cl)cc1 | inconclusive: 11.2 µM [inhibitor, partial curve] | – | –
28 | O=C(Cc1ccccc1)NCC1CN(Cc2ccc(C(=O)O)cc2)CC12CN(c1ccccc1)C2 (stereo unspecified) | – | inactive | –
29 | Cc1nn(CC(=O)NCc2ccc(F)cc2F)c(=O)c2nc(-c3ccccc3)sc12 | inconclusive: 0.891 µM [inhibitor, partial curve, poor fit] | – | –
30 | COc1cccc(CNC(=O)c2cc(S(=O)(=O)N3CCCCC3)c[nH]2)c1 | inconclusive: 10 µM [inhibitor, single point] | – | –
31 | CN(C)c1ccc(C(=O)NC[C@H]2C[C@@H]3CCN2C[C@@H]3CN2CCN(c3ccc(F)cc3)CC2)cc1 | inconclusive: 1 µM [inhibitor, partial curve, poor fit] | – | –
32 | O=C1CCC2(CCN1)CCN(C(=O)C1CCCCC1)CC2 | inconclusive: 2 µM [inhibitor, partial curve] | – | –
33 | OCCN(CCO)c1ncnc2c1cnn2-c1ccc(F)cc1 | – | – | inactive: 101%
34 | CCc1nc2c(c(-c3ccc(O)cc3)n1)CN(CCC(C)C)CC2 | inconclusive: 5.62 µM [inhibitor, single point] | – | –
35 | O=C1CC(c2nc(-c3ccc4nc[nH]c4c3)no2)CN1C1CC1 (stereo unspecified) | – | – | inactive: -12.7%
36 | CN(CC1(C)CCOCC1)C(=O)NC(C)(C)C | – | – | inactive: -19.8%
37 | OCC1(CN2CCCC2)CCN(Cc2cc(F)cc(Cl)c2)CC1 | inconclusive: 3.55 µM [inhibitor, partial curve, poor fit] | – | –
38 | Cc1ccc(-c2cc(N3CCC(CNC(=O)c4ccc5nc[nH]c5c4)CC3)n[nH]2)cc1 | inconclusive: 2.51 µM [inhibitor, single point] | – | –
39 | N#Cc1ccc(CNC(=O)[C@@H]2Cc3nc[nH]c3CN2Cc2cc3ccccc3o2)cc1 | inconclusive: 15.8 µM [inhibitor, single point] | – | –
40 | CCOc1cccc2sc(N(Cc3cccnc3)C(=O)c3ccc(C#N)cc3)nc12 | inconclusive: 17.8 µM [inhibitor, single point] | – | –
41 | Cc1c(CC(=O)NCc2ccc(F)cc2)c(=O)oc2cc(O)c(Cl)cc12 | inconclusive: 11.2 µM [inhibitor, single point] | – | –
42 | Cc1cc2nc(CO[C@H]3CN(C4CCC4)C[C@H]3F)[nH]c2cc1C | inconclusive: 31.6 µM [inhibitor, single point] | – | –
43 | O=C(c1cccc(OC(F)F)c1)N1CC[C@H](N2CCOCC2)[C@H](CCCO)C1 | – | – | inactive: -9.18%
44 | CCOC(=O)c1c(NC(=O)C2c3ccccc3Oc3ccccc32)sc(C)c1C | inconclusive: 17.8 µM [inhibitor, single point] | – | –

Row | Compound | Potency | outcome | activity, negative = inhibition
45 | COc1cc2cc(CNc3ccccc3)c(=O)n(CC(=O)Nc3cccc(Cl)c3C)c2cc1OC | inconclusive: 0.224 µM [inhibitor, full curve, poor fit] | – | –
46 | COc1cc(NC(=O)CC2C(=O)NCCN2C(C)C)ccc1NC(=O)C(C)(C)C (stereo unspecified) | – | – | inactive: -5.95%
47 | COCCN1C(=O)c2ccccc2C(C(=O)NCCc2c[nH]c3ccccc23)C12CCCC2 (stereo unspecified) | – | – | inactive: -3.58%
48 | O=C(O)CCC(=O)N1CCC2(CC1)Cc1ccccc1N(C(=O)C1CCCC1)C2 | inconclusive: 12.6 µM [inhibitor, partial curve, poor fit] | – | –
49 | COc1cccc(N2CC(C(=O)N3CCC(C(=O)NCCc4ccc(F)cc4)C3)NC2=O)c1 (stereo unspecified) | inconclusive: 2.51 µM [inhibitor, partial curve, poor fit] | – | –
50 | COc1cccc(Cn2cc(C(=O)c3ccccc3)c(=O)c3cc4c(cc32)OCO4)c1 | inconclusive: 17.8 µM [inhibitor, single point] | – | –
51 | COc1ccc(C2Cn3nnc(C(=O)NCc4ccc(F)cc4Cl)c3CO2)cc1 (stereo unspecified) | inconclusive: 2 µM [inhibitor, full curve] | – | –
52 | COc1ccc(-n2ncc3c(NCCCOC(C)C)ncnc32)cc1 | inconclusive: 12.6 µM [inhibitor, single point] | – | –
53 | Cc1ccc(CN2CCCN(S(=O)(=O)c3ccccc3)CCC(=O)NCC2)s1 | inconclusive: 1.41 µM [inhibitor, partial curve, poor fit] | – | –
54 | Clc1cnccc1CN1CCNc2cc(-c3ccccc3)ncc2C1 | inconclusive: 31.6 µM [inhibitor, single point] | – | –
55 | COc1cc(NC(=O)NC[C@H]2O[C@@H](CO)[C@@H](O)[C@@H]2N(C)Cc2ccccc2)cc(OC)c1 | inconclusive: 11.2 µM [inhibitor, single point] | – | –
56 | O=C(c1cccc(F)c1)N1CCN(C(=O)c2nnn3c2COC(c2ccccc2)C3)CC1 (stereo unspecified) | inconclusive: 11.2 µM [inhibitor, single point] | – | –
57 | Cc1cc2nc3n(c(=O)c2n1CC(=O)Nc1ccc(Cl)cc1F)CCC3 | – | inactive | –
58 | O=c1c2nc(Nc3cccc(F)c3)ccc2ncn1Cc1ccccc1 | inconclusive: 11.2 µM [inhibitor, single point] | – | –
59 | OC[C@@H]1CNC[C@H]1C1CCN(Cc2ccc(Br)cc2F)CC1 | inconclusive: 4.47 µM [inhibitor, single point] | – | –
60 | CCCNC(=O)NCCc1noc(-c2cccnc2)n1 | – | – | inactive: 13.3%
61 | CC1(C)[C@H](Cc2cc(COc3ccccc3)on2)C[C@@H]1NC(=O)Nc1ccccc1 | active: 10 µM | – | –
62 | Cn1nccc1C(=O)NCC1Cn2cccc2C(=O)N1Cc1ccccc1 (stereo unspecified) | inconclusive: 12.6 µM [inhibitor, single point] | – | –
63 | COCCNC(=O)c1ccc2c(c1)N(C)C(CC(=O)Nc1ccc(C)nc1)CO2 (stereo unspecified) | inconclusive: 3.98 µM [inhibitor, partial curve, poor fit] | – | –
64 | CNC(=O)[C@@H]1C[C@@H](n2cc(CNC(=O)Nc3cc(F)ccc3F)nn2)CN1 | – | – | inactive: -3.04%
65 | CCCCN(CC)CCCNC(=O)c1c(C)oc2ncnc(N3CCOCC3)c12 | – | – | inactive: 23.3%
66 | CCCc1nnc(C[C@@H]2C[C@@H](C(C)C)[C@H](CN3CCC(O)CC3)C=C2C)o1 | inconclusive: 11.2 µM [inhibitor, partial curve, poor fit] | – | –
